Among the data in PubChem BioAssay AID463173 (ICCB-Longwood Screening Facility, Harvard Medical School, 2010) are survival values, retold here.

SMILES strings stand for the structures. The whole screen tested about 52,000 compounds, of which about 1,700 (3.3%) were called active. Cut-off read from the data, not from the text of the source: active = survival mostly below about 52% (no sharp cut-off); inactive = mostly above about 56%. The list shows a part of the results.

The assay concerns Wild type. The experiment in a line: S. aureus survival, RN4220 and DeltatarO strains – OD600, teichoic acid synthesis inhibitors, primary screen (AID 463173). The note with it: S. aureus RN4220 wild type/DeltatarO growth, OD600, 18 h, active compounds read low, screened at 18.75 µg/mL (by protocol).
Turning to `Cc1ccc(Cl)cc1NC(=O)CCC(=O)N1CC(C)Sc2ccccc21` (centres undefined), the survival is inactive: 63%.

With `COc1ccccc1-c1nnc(SCC(=O)Nc2ccccc2F)o1`, the survival is inactive: 83%.

Turning to `O=C(NCCc1ccc(Cl)cc1)C1CCN(c2ncnc3c2nc2n3CCCCC2)CC1`, the survival is inactive: 80%.

Turning to `CC(C)(C)Nc1nc(OCC#N)nc(N2CCOCC2)n1`, the survival was inactive: 130%.

In the case of `COc1ccc(CNC(=O)CN2C3CCCC2CC(=O)NC3)cc1` (centres undefined), the survival was inactive: 105%.

In the case of `Cc1ccc(-n2c(=O)c3c4c(sc3n(CC(=O)c3ccc(Cl)cc3)c2=O)CCC4)cc1C`, the survival is inactive: 141%.

With `CN(Cc1ccco1)C(=O)c1ccc2c(c1)N(Cc1ccccc1F)C(=O)c1ccccc1S2`, the survival was inactive: 115%.

As to `CC(=O)N1c2ccc(S(=O)(=O)NCC3CCC(C(=O)Nc4ccc(C)cc4)CC3)cc2CC1C` (centres undefined), the survival was inactive: 97%.

For `CCc1ccc(NC(=O)CN2CCCN(Cc3cccc(Cl)c3)S2(=O)=O)cc1`, the survival was inactive: 73%.

For `COC(=O)c1cc2sc(C)cc2n1CC(=O)Nc1ccc(C)c(C)c1`, the survival is inactive: 69%.

On to `O=C(NC1CCCCC1)/C(=N\O)c1ccccn1`, for which the survival is inactive: 103%.

Turning to `CCOc1ccc(NC(=O)c2cc(S(=O)(=O)N3CCCCCC3)cn2C)cc1`, the survival is inactive: 128%.

Regarding `COc1ccc2c(c1)c1c(c(=O)n(-c3ccc(F)c(Cl)c3)c(=O)n1CC(=O)N1CCCC1)n2C`, the survival was inactive: 69%.

As to `Cc1c2cnn(-c3ccccc3)c(=O)c2c(C)n1CC(=O)NCCc1ccc(Cl)cc1`, the survival is inactive: 99%.

For `CCOC(=O)c1ccc(N2C(=O)CC(NC(C)(C)C)C2=O)cc1` (centres undefined), the survival was inactive: 103%.

Turning to `Cc1ccc(C2=C(CC(=O)O)C(=O)CC2)cc1`, the survival is inactive: 96%.

As to `CC(=O)N1CCc2c(sc3c2c(=O)n(-c2ccccc2)c(=O)n3CC(=O)Nc2ccccc2)C1`, the survival is inactive: 77%.

Regarding `COc1cc(CNC(=O)c2ccc3c(c2)N(C)C(=O)C2CCCCN32)cc(OC)c1OC` (centres undefined), the survival was inactive: 73%.

Take `COc1ccc2c(c1)N(C)/C(=c1/s/c(=C3/C(=O)N(c4ccccc4)N=C3C)n(C)c1=O)S2`: the survival is inactive: 115%.

In the case of `O=C(O)c1ccc(CNCc2ccc(Cl)cc2)s1`, the survival was inactive: 88%.

On to `Cc1ccccc1NC(=O)Cn1c(SCC(=O)Nc2ccc(F)cc2)nc2ccccc21`, for which the survival is inactive: 76%.

As for `CCOC(=O)c1ccc(NC(=O)Cn2c(=O)n(-c3ccc(C)cc3)c(=O)c3c2cnn3C)cc1`, the survival was inactive: 74%.

For the compound `Cc1c(-c2nc(-c3ccc4c(c3)OCO4)no2)nnn1-c1ccc(Br)cc1F`, the survival was inactive: 75%.

As to `Cc1ccc2nc(Nc3cccc(Cl)c3C)c(-n3nc(C)cc3C)nc2c1`, the survival was inactive: 131%.

In the case of `CC(C)CN(C(=O)c1cccc(S(=O)(=O)N2CCCCC2)c1)C1CCS(=O)(=O)C1` (centres undefined), the survival is inactive: 76%.

Consider `Cc1ccccc1NC(=S)N1CCC(NC(=O)C(C)(C)C)CC1`, for which the survival is inactive: 108%.

With `CC1(C)CC(CC(N)=O)(c2ccccc2)CCO1` (centres undefined), the survival was inactive: 124%.

Turning to `Cc1ccc(CNC(=O)Cc2c(C)c3cc4c(C)coc4cc3oc2=O)cc1`, the survival was inactive: 92%.

Consider `CCOC(=O)N1c2ccccc2Sc2ccccc21`, for which the survival was inactive: 95%.

Take `N#CCOC(=O)c1cc(-c2ccc(C=C(C#N)C#N)o2)ccc1Cl`: the survival was inactive: 108%.

For `O=C(COc1ccccc1Cl)OCc1cc(=O)n2nc(-c3cccs3)sc2n1`, the survival was inactive: 87%.

`CCOC(=O)c1ccc(N2CCN(c3cccc(OC)c3)CC2)c(NC(=O)Nc2ccc(OCC)cc2)c1`: the survival is active: -6%.

`CCOC(=O)c1c(NC(=O)c2nc(SCC)ncc2Cl)sc(C(C)=O)c1C`: the survival is inactive: 92%.

Take `COc1ccc(C(=O)OCc2cc(=O)n3nc(-c4cccs4)sc3n2)cc1`: the survival was inactive: 75%.

Regarding `CCC(Cn1nnc2ccccc2c1=O)NC(=O)Nc1cccc(C)c1C` (centres undefined), the survival was inactive: 91%.

With `Cc1ccc(S(=O)(=O)Cc2ccc(C(=O)N3CCN(c4cccc(C)c4C)CC3)o2)cc1`, the survival was inactive: 131%.

In the case of `Cc1ccc(NC(=O)C2CCCN(c3nnc(C)c4c(C)n(-c5ccccc5)nc34)C2)c(Cl)c1` (centres undefined), the survival is inactive: 78%.

`O=[N+]([O-])c1cc(-c2nc(-c3ccccc3)no2)ccc1N1CCCCC1`: the survival is inactive: 90%.

`CCC(=O)N1CCc2cc(Br)cc(S(=O)(=O)CCC(=O)N3CCN(c4cccc(C(F)(F)F)c4)CC3)c21`: the survival was inactive: 93%.

Regarding `CC1=C(C(=O)Nc2ccccc2)C(c2ccncc2)n2nc(SCc3ccccc3Cl)nc2N1` (centres undefined), the survival was inactive: 103%.

Consider `COc1ccc(S(=O)(=O)Nc2ccccc2C(=O)NCc2ccco2)cc1OC`, for which the survival was inactive: 118%.

Consider `O=C(Cn1c(=O)n(Cc2ccco2)c(=O)c2ccccc21)Nc1ccc(Cl)cc1Cl`, for which the survival is inactive: 103%.

On to `O=C(Cn1c(=O)ccc2cc(S(=O)(=O)N3CCCC3)ccc21)NCc1ccc(Cl)cc1`, for which the survival is inactive: 75%.

`O=C(c1ccc(Cl)cc1)N1CCC(c2ccncc2)CC1`: the survival is inactive: 76%.

In the case of `CCN(CC)S(=O)(=O)c1ccc2nc(NC(=O)c3cccnc3)sc2c1`, the survival was inactive: 66%.

As for `COc1cc(-c2noc(-c3ccc(N4CCN(C)CC4)c([N+](=O)[O-])c3)n2)cc(OC)c1OC`, the survival is inactive: 120%.

Take `CC(C)(C)c1ccc(S(=O)(=O)NCc2ccc3c(c2)CCN3C(=O)c2ccccc2)cc1`: the survival is inactive: 93%.

`O=C(NCCO)c1ccc2[nH]c3c(c2c1)CCCC3`: the survival is inactive: 102%.

Turning to `CCOC(=O)c1cc(S(=O)(=O)NCc2ccccc2)[nH]n1`, the survival was inactive: 136%.

For `CCC(CO)NC(=O)C(=O)Nc1c2c(nn1-c1ccc(F)cc1)CSC2` (centres undefined), the survival was inactive: 87%.

Take `CN(C)c1nc(Cl)nc(NCCOc2ccccc2)n1`: the survival is inactive: 115%.

With `CCOC(=O)c1cnn(Cc2ccccc2)c1N`, the survival was inactive: 104%.

In the case of `Cc1cc(Nc2ccc(C)c(Cl)c2)n2nc(Cc3ccccc3)nc2n1`, the survival is inactive: 59%.

For the compound `COc1ccccc1CNS(=O)(=O)c1c(C)nc2scc(C)n2c1=O`, the survival was inactive: 79%.

For the compound `CCN(c1ncnc2c1cnn2-c1ccc(C)cc1)C1CCCCC1`, the survival is inactive: 72%.

Regarding `CCOc1ccc(NC(=O)CSc2nc(-c3ccc(OC)cc3)nc3c2Cc2c(CO)cnc(C)c2O3)cc1`, the survival is inactive: 87%.

As to `COCCn1c(=O)[nH]c2cc(C(=O)NCc3ccccc3Cl)ccc2c1=O`, the survival was inactive: 94%.

Turning to `CCOc1ccc(NC(=O)c2c(Nc3ccc(OC)cc3OC)sc(C(=O)c3ccc(Cl)cc3)c2N)cc1`, the survival is inactive: 81%.

In the case of `CCC(C)C(=O)NCc1ccc(C)cc1` (centres undefined), the survival was inactive: 105%.

Regarding `CCOC(=O)c1cccc(NC(=O)c2cc3sccc3n2Cc2ccc(Cl)cc2)c1`, the survival was inactive: 135%.

Consider `CCOc1ccc(CCNC(=O)CCc2cn(Cc3ccccc3F)c3ccccc23)cc1OCC`, for which the survival was inactive: 95%.

In the case of `CC(=O)N1CCCc2cc(S(=O)(=O)N(C)CC(=O)Nc3cccc(Cl)c3C)ccc21`, the survival is inactive: 68%.

Take `CCc1ccc(S(=O)(=O)NCCc2cn3ccsc3n2)cc1`: the survival was inactive: 71%.

As to `Cn1c(=O)c2cc(S(=O)(=O)NC(Cc3ccccc3)C(=O)Nc3ccc(F)cc3)ccc2n(C)c1=O` (centres undefined), the survival is inactive: 66%.

Consider `COC(=O)c1ccccc1NC(=S)N(Cc1ccco1)Cc1cc2cc(C)ccc2[nH]c1=O`, for which the survival is inactive: 133%.

Turning to `Cc1cccc(CNC(=O)c2cnc3c(-c4cccc(C)c4)c(C)nn3c2C)c1`, the survival was active: -1%.

`CCCCC(=O)N1c2ccccc2C(C)(c2ccccc2)CC1(C)C` (centres undefined): the survival is active: -2%.

On to `COc1ccc(OC)c(CCNc2ncnc3onc(-c4ccc(Cl)cc4)c23)c1`, for which the survival was inactive: 128%.

`O=C(OCC(=O)c1cccs1)c1cccc(C(=O)OCC(=O)c2cccs2)n1`: the survival was inactive: 111%.

As for `O=C(c1ccccc1Cl)n1nc(-c2ccco2)nc1NCc1cccs1`, the survival is inactive: 87%.

Regarding `CCOC(=O)c1ccc(CN(Cc2ccc(F)cc2)S(=O)(=O)c2ccc(F)c(C(=O)Nc3cc(Cl)ccc3OC)c2)cc1`, the survival is inactive: 71%.

Take `Cc1ccc(N2CCN(C(=O)c3c(C)oc4ncn(C)c(=O)c34)CC2)c(C)c1`: the survival is inactive: 84%.

For `C/C(=N\N=C1/NC(=O)C(CC(=O)O)S1)c1ccc(C)o1` (centres undefined), the survival is inactive: 117%.

As to `CCN(CC)c1ccc(NC(=O)COCc2cc(-c3ccc4c(c3)OCO4)on2)c(C)c1`, the survival was inactive: 81%.

Turning to `Cc1ccccc1Cn1c2ccccc2c2cnn(CC(=O)NCc3cccc(Cl)c3)c(=O)c21`, the survival was inactive: 79%.

In the case of `Cc1ccc(NC(=O)CSc2nc3c(oc4ccccc43)c(=O)n2Cc2ccco2)cc1F`, the survival was inactive: 71%.

Regarding `Cc1nc(-n2nc(C)c(Cc3ccc(Cl)cc3)c2C)sc1C(=O)N1CCC(C)CC1`, the survival is inactive: 85%.

Consider `CC(N=Cc1cccc(O)c1O)c1ccccc1` (centres undefined), for which the survival is inactive: 126%.

In the case of `CCOC(=O)CCc1nn(C)c(=O)c2ccccc12`, the survival was inactive: 111%.

Turning to `CC(C)c1ccc(OCC(=O)Nc2ccc(S(=O)(=O)Nc3ncccn3)cc2)cc1`, the survival was inactive: 94%.

For the compound `COc1ccc(CNC(=O)c2cc3c(=O)n(Cc4ccco4)ccc3nc2C)c(OC)c1`, the survival was inactive: 93%.

As for `CC(=O)N1CCCc2cc(S(=O)(=O)N(C)CC(=O)Nc3ccc(C(C)C)cc3)ccc21`, the survival is inactive: 74%.

With `Cn1cc(-c2cc3n(n2)CCC(=O)N3CCCC(=O)Nc2ccc(Cl)cc2)c2ccccc21`, the survival was inactive: 80%.

As for `O=C1CC(c2ccccc2)Sc2ccccc2N1Cc1ccccc1F` (centres undefined), the survival was inactive: 96%.

For `CC(C)OC(=O)c1c(NC(=O)c2cccc(C(F)(F)F)c2)sc2c1CCCC2`, the survival is inactive: 77%.

Turning to `O=C1Nc2nc(=O)nc3[nH]c(=O)nc(n23)N1`, the survival was inactive: 94%.

In the case of `COc1cccc(CNC(=O)c2sc3nc[nH]c(=O)c3c2C)c1`, the survival was inactive: 76%.

On to `COc1ccc(CNC(=O)CCC2N=C3c4ccccc4N=C(SCC(=O)NCCc4ccc(OC)c(OC)c4)N3C2=O)cc1` (centres undefined), for which the survival was inactive: 69%.

As for `COc1ccc(NC(=O)Cn2ccn(-c3ccc(F)c(F)c3)c(=O)c2=O)cc1Cl`, the survival was inactive: 83%.
